Laboratory results reported in PubChem BioAssay AID1466 (National Center for Advancing Translational Sciences (NCATS), 2008).
The campaign covered roughly 200,000 compounds. About 10 (0.005%) were called active. The shares of active, inactive and inconclusive entries below differ from those in the screen. Calls come from the whole dose curve; as a rule, active = well fitted inhibition curve with a large enough effect; inconclusive = small, poorly fitted or top-dose-only effect, or effect the other way, or another doubt; inactive = no such curve, though single readings can be large or run the other way. Potencies of inconclusive entries are doubtful fits and often do not repeat.

Molecular target: Lysosomal alpha-glucosidase (Homo sapiens) (UniProt P10253)
Test: qHTS Assay for Inhibitors of Human alpha-Glucosidase as a Potential Chaperone Treatment of Pompe Disease;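 for activity change, negative = inhibition: plate controls were uninhibited enzyme wells for no effect and no-enzyme background for full effect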
Conditions: purified human GAA, 4-MU-alpha-glucoside fluorescence; activity change, negative = inhibition: at 76.9 µM (top of the series) unless noted
In short: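 Enzyme (4 nM final) mixed with compound (up to 77 uM), then 4-MU-alpha-D-pyranoside (400 uM final) added; 20 min at room temperature, pH 5.0. Reaction stopped at pH 10, fluorescence read, AC50 derived by Hill fit.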
Potency is the fitted concentration of half-maximal effect; tags give direction and shape of the fitted curve.

Activity change, negative = inhibition, inconclusive:
CS(=O)(=O)N1CCC(NC(=O)Cc2ccccc2)CC1 -15.5% [inhibitor], Cc1ncsc1CCC(=O)N1CCCC(C(=O)c2cccc(Cl)c2)C1 (stereo not given) 18.1% [activator], Cc1nnc(SCC(=O)c2ccc(Cl)cc2)n(N)c1=O 19.3% [activator], O=C(CSC1=NC(=O)C(c2ccccc2)C(=O)N1)Nc1ccccc1[N+](=O)[O-] (stereo not given) 15.7% [activator], CN(C)S(=O)(=O)n1cnc(-c2ccccc2)c1-c1ccccc1 -16% [inhibitor], CCCSc1ncnc2sc(C)c(C)c12 12.3% [activator], CCOc1ccc(NC(=O)CCN2CCN(S(=O)(=O)c3ccc(OC)cc3)CC2)cc1 -16.6% [inhibitor], CCCCC(CCC(=O)O)(C(=O)OCC)c1csc(Nc2ccccc2)n1 (stereo not given) 20.2% [activator]

Potency, inactive:
CCN(CC)S(=O)(=O)c1cc([N+](=O)[O-])ccc1NNC(=O)Nc1ccccc1OC, CC1(C)CC(Nc2ccc(Nc3ccccc3)cc2)CC(C)(C)N1, Cc1ccsc1C1C(C#N)=C(N)N(N(C)C)C2=C1C(=O)CCC2 (stereo not given)

Potency, inconclusive:
Cc1ccc(S(=O)(=O)N2CCCC2C(=O)Nn2cnnc2)cc1 (stereo not given) 35.5 µM [inhibitor, partial curve, poor fit], COc1cc(Nc2cc(C)nc3nc(C)nn23)cc(OC)c1OC 50.1 µM [inhibitor, single point], O=C(Cc1c(C(=O)O)[nH]c2ccccc12)NCCN1CCN(c2cccc(Cl)c2)CC1 44.7 µM [inhibitor, partial curve, poor fit], CCOC(=O)CC1=CC(C)(CC(=O)OCC)C(C#N)(C#N)C(N)=C1C#N (stereo not given) 50.1 µM [inhibitor, single point], CS(=O)(=O)N(CC(=O)NCc1ccco1)Cc1ccc(Cl)cc1 0.158 µM [inhibitor, full curve, poor fit], CCCCn1c(=O)nc2n(-c3ccccc3C)c3ccccc3cc-2c1=O 35.5 µM [activator, partial curve], Nc1c(C(=O)NCc2ccc(F)cc2)c2nc3ccccc3nc2n1CCCN1CCOCC1 39.8 µM [activator, partial curve], COC(=O)c1cc(OC)c(OC)cc1NC(=O)c1cccc(OC)c1OC 1.78 µM [activator, full curve, poor fit], COc1ccc(OC)c(N(CC(=O)N2CCC(C)CC2)S(=O)(=O)c2ccccc2)c1 28.2 µM [inhibitor, partial curve], Cc1oc(/N=C/c2ccc(Cl)cc2)c(C#N)c1C 50.1 µM [inhibitor, single point], COC(=O)c1ccc(NC(=O)C(=O)N2CCN(C(=S)Nc3ccc(C)cc3)CC2)cc1 11.2 µM [inhibitor, full curve, poor fit], COC(=O)c1cc(NC(=O)CCc2c(C)nc3ncnn3c2C)cc(C(=O)OC)c1 56.2 µM [inhibitor, single point], CC(OC(=O)C1CC=CCC1C(N)=O)C(Cl)=C(Cl)Cl (stereo not given) 3.16 µM [inhibitor, full curve, poor fit], O=C(NCc1ccco1)c1cc(-c2cccs2)nc2ccccc12 35.5 µM [activator, partial curve], COc1ccc(CC(=O)Nc2ccc(-c3nc4cc(C)ccc4o3)c(O)c2)cc1OC 39.8 µM [activator, single point], COc1cc(-n2c(N)c(C(=O)NCc3ccco3)c3nc4ccccc4nc32)cc(OC)c1OC 50.1 µM [activator, single point], O=C(Nc1ccc(Oc2ccc(S(=O)(=O)N3CCOCC3)cn2)cc1)c1ccco1 17.8 µM [inhibitor, partial curve], CCCCSc1nc(N)c(C#N)c(-c2cccs2)c1C#N 56.2 µM [inhibitor, single point], Cn1c(NC(=O)c2cccc(C(F)(F)F)c2)cc(=O)n(C)c1=O 56.2 µM [inhibitor, single point], COc1cc(CN2CCN(c3ccccc3F)CC2)c([N+](=O)[O-])cc1OC 56.2 µM [inhibitor, single point], O=C(c1cc2c(ccc3ccccc32)oc1=O)N1CCN(CCO)CC1 28.2 µM [activator, partial curve], CCc1ccc2[nH]c(=O)c(CN(Cc3ccccc3)Cc3nnnn3Cc3ccco3)cc2c1 56.2 µM [inhibitor, partial curve, poor fit], CCn1c(N2CCN(C(=S)NCCc3ccccc3)CC2)nc2ccccc21 3.55 µM [inhibitor, partial curve], Cn1nc(C(F)(F)F)c(CN2CC(C)(C)C2=O)c1N1CCOCC1 11.2 µM [activator, single point], CON(C)S(=O)(=O)c1ccc2c(c1)NC(=O)C1CCCN21 (stereo not given) 28.2 µM [inhibitor, single point], COc1ccc(CNC(=O)c2ccc(NC(=O)C3CCCO3)cc2)cc1 (stereo not given) 50.1 µM [inhibitor, single point], O=C(O)Cc1ccc(NS(=O)(=O)c2c(Cl)cccc2Cl)cc1 0.178 µM [activator, full curve, poor fit], COCCn1c(N)c(C(=O)OCc2ccccc2)c2nc3ccccc3nc21 31.6 µM [activator, partial curve], O=C(Nc1cccc(Cl)c1)c1ccc(F)c(S(=O)(=O)NCc2ccc3c(c2)OCO3)c1 2.51 µM [inhibitor, full curve, poor fit]
